For 153 variants, enrichment ratio results are on record in a collection of fitness landscapes (doi:10.1126/science.1257360).

The labels stand for the following.
B1: PhoQ; a variant is named by its letters at X, in order, P23837 (parent)
chain: MKKLLRLFFPLSLRVRFLLATAAVVLVLSLAYGMVALIGYSVSFDKTTFRLLRGESNLFYTLAKWENNKLHVELPENIDKQSPTMTLIYDENGQLLWAQRDVPWLMKMIQPDWLKSNGFHEIEADVNDTSLLLSGDHSIQQQLQEVREDDDDAEMTHSVAVNVYPATSRMPKLTIVVVDTIPVELKSSYMVWSWFIYVLSANLLLVIPLLWVAAWWSLRPIEALAKEVRELEEHNRELLNPATTRELTSLVRNLNRLLKSERERYDKYRTTLTDLTHSLKTPLXXLQXXLRSLRSEKMSVSDAEPVMLEQISRISQQIGYYLHRASMRGGTLLSRELHPVAPLLDNLTSALNKVYQRKGVNISLDISPEISFVGEQNDFVEVMGNVLDNACKYCLEFVEISARQTDEHLYIVVEDDGPGIPLSKREVIFDRGQRVDTLRPGQGVGLAVAREITEQYEGKIVAGESMLGGARMEVIFGRQHSAPKDE

The list shows a part of the results. Bounds are passed on as bounds.

The experiment covers variants of B1. Description: enrichment ratio after two sorts for PhoP signalling (ratio (wild type AVST 3.29)); higher = more functional. To be noted: with PhoP (E. coli).
On to SVNP, for which the enrichment ratio was ≤ 0.25.

For the variant YLYE, the enrichment ratio was ≤ 0.25. Under FEVF stands ≤ 0.25; under LEYC, 4.32. Under HMWW stands ≤ 0.25; under CNAF, ≤ 0.25. Under WANI stands ≤ 0.25; under GALI, 14.1.

For GKWG, the enrichment ratio was ≤ 0.25. Under IMEH stands ≤ 0.25; under WRSF, ≤ 0.25.

Consider TLAF, for which the enrichment ratio was 1.14. Under ECFK stands ≤ 0.25; under QFSS, ≤ 0.25; under SWHA, ≤ 0.25.

On to IKYI, for which the enrichment ratio is ≤ 0.25. Under DWLE stands ≤ 0.25; under MDYK, ≤ 0.25. Under QQNY stands 2.46. Consider TGSK, for which the enrichment ratio was ≤ 0.25. As to CVLV, the enrichment ratio is ≤ 0.25. Under DTRY stands ≤ 0.25; under RRKE, ≤ 0.25. With ECST, the enrichment ratio is ≤ 0.25. As to IACN, the enrichment ratio is ≤ 0.25. Under WNPY stands ≤ 0.25. Under LQSH stands ≤ 0.25; under YHIH, ≤ 0.25. Turning to IDWG, the enrichment ratio was ≤ 0.25. Under VMHG stands ≤ 0.25; under LVNK, ≤ 0.25; under MSIP, ≤ 0.25. Under LWQP stands ≤ 0.25; under RMCM, ≤ 0.25; under RMEE, ≤ 0.25. Under GLLV stands 3.8; under YHVP, ≤ 0.25; under DHGI, ≤ 0.25. On to RWFV, for which the enrichment ratio is ≤ 0.25. Under DFTA stands ≤ 0.25; under LNAP, ≤ 0.25. Under QNCG stands ≤ 0.25. Under HEYY stands ≤ 0.25; under EVNQ, ≤ 0.25.

For MVNM, the enrichment ratio is ≤ 0.25. Under WFFR stands ≤ 0.25. Under HLCG stands ≤ 0.25; under QLGT, ≤ 0.25. Under HRSN stands ≤ 0.25. As for VSED, the enrichment ratio is ≤ 0.25. With NCLV, the enrichment ratio came to 1.12.

As to WVLK, the enrichment ratio is ≤ 0.25.

With MYLG, the enrichment ratio was ≤ 0.25. Under SPVW stands ≤ 0.25; under PNEC, ≤ 0.25; under PPQA, ≤ 0.25. Under DYPL stands 0.405. Under VGML stands 8.33; under SILE, 1.97; under GPSV, ≤ 0.25. For VSHD, the enrichment ratio was ≤ 0.25. Under PEGI stands ≤ 0.25; under QISI, ≤ 0.25.

On to DQRP, for which the enrichment ratio was ≤ 0.25. Under LRIA stands ≤ 0.25; under IRIY, ≤ 0.25; under KREA, ≤ 0.25. Under GCTK stands ≤ 0.25; under MMWG, ≤ 0.25; under FCYT, ≤ 0.25. Under RAIY stands ≤ 0.25; under SNED, ≤ 0.25. Turning to QLTP, the enrichment ratio is ≤ 0.25. Under EVKV stands ≤ 0.25; under HKHE, ≤ 0.25; under RFYF, ≤ 0.25. Under DYTP stands ≤ 0.25; under YMSN, ≤ 0.25. Under IDIE stands ≤ 0.25; under IGDF, ≤ 0.25; under CFYF, ≤ 0.25. On to EELK, for which the enrichment ratio is ≤ 0.25. As for GCIM, the enrichment ratio stood at 24.5. Under GHRE stands ≤ 0.25; under WNCQ, ≤ 0.25; under WIYW, ≤ 0.25.

Consider HALE, for which the enrichment ratio is ≤ 0.25.

Turning to HEFY, the enrichment ratio is ≤ 0.25. Under APCK stands ≤ 0.25; under WSQA, ≤ 0.25; under RSGD, ≤ 0.25. Under MQLV stands 4.79. Under SWDY stands ≤ 0.25; under QRTT, ≤ 0.25; under PCYC, ≤ 0.25. In the case of GQTY, the enrichment ratio is ≤ 0.25. Under WYRG stands ≤ 0.25. Under QRKH stands ≤ 0.25. Under AGTV stands 4.18. As for WKLY, the enrichment ratio is ≤ 0.25.

Consider QTLY, for which the enrichment ratio was ≤ 0.25. Under RHQH stands ≤ 0.25; under RSWC, ≤ 0.25. Under THWY stands ≤ 0.25; under IQQR, ≤ 0.25. Under VPTE stands ≤ 0.25; under FLIW, ≤ 0.25; under QGHN, ≤ 0.25. Take WSGI: the enrichment ratio was ≤ 0.25. QNAW: the enrichment ratio was ≤ 0.25. With NNLQ, the enrichment ratio was ≤ 0.25. Regarding QVHH, the enrichment ratio is ≤ 0.25. Under NNVC stands ≤ 0.25; under MFGS, ≤ 0.25. Under FSPA stands ≤ 0.25.

In the case of NLKV, the enrichment ratio was ≤ 0.25. Under FKFW stands ≤ 0.25; under DYTI, ≤ 0.25. As to PPWP, the enrichment ratio was ≤ 0.25.

For GPQY, the enrichment ratio was ≤ 0.25. With NIWN, the enrichment ratio was ≤ 0.25.

In the case of MRFL, the enrichment ratio was ≤ 0.25. Under DKPD stands ≤ 0.25. Under HSSQ stands ≤ 0.25; under AFGS, ≤ 0.25; under LYFG, ≤ 0.25. As for IKGG, the enrichment ratio was ≤ 0.25.

In the case of LDAG, the enrichment ratio is ≤ 0.25. Under GTTN stands ≤ 0.25. Under PTSE stands ≤ 0.25. In the case of NDVH, the enrichment ratio is ≤ 0.25. Under KTNG stands ≤ 0.25. Under QKFL stands 5.14.

On to RPVA, for which the enrichment ratio was ≤ 0.25.

On to AILQ, for which the enrichment ratio came to 13.6. Regarding FKID, the enrichment ratio was ≤ 0.25.

For VHGL, the enrichment ratio is ≤ 0.25.

TYTP: the enrichment ratio is ≤ 0.25. For the variant QPSH, the enrichment ratio was ≤ 0.25. Under HRYH stands ≤ 0.25; under LPHE, ≤ 0.25; under VQSK, ≤ 0.25. Under LDCR stands ≤ 0.25; under PFLM, ≤ 0.25. Under PDHS stands ≤ 0.25. As for PHTQ, the enrichment ratio is ≤ 0.25. Under ERFT stands ≤ 0.25. Under NRIC stands ≤ 0.25.

Consider ARFA, for which the enrichment ratio is ≤ 0.25. Regarding NTQP, the enrichment ratio is ≤ 0.25.

Take SCQP: the enrichment ratio was ≤ 0.25. Under HNQY stands ≤ 0.25; under WNTY, ≤ 0.25.
